Experimental data published in the CheMixHub viscosity set.
This continues a long series; more values of the same kind are listed elsewhere.

Experiment: xn = mol fraction of the nth substance listed
Conditions: 101 kPa

NC=O + CCO
viscosity [mPa·s]
Conditions | x1 = 0.1412 | x1 = 0.2032 | x1 = 0.268 | x1 = 0.3874 | x1 = 0.4962 | x1 = 0.5958 | x1 = 0.708 | x1 = 0.7748 | x1 = 0.8532 | x1 = 0.9282
293.15 K | 1.334 | 1.427 | 1.555 | 1.822 | 2.091 | 2.349 | 2.66 | 2.857 | 3.106 | 3.368
298.15 K | 1.23 | 1.312 | 1.423 | 1.663 | 1.906 | 2.143 | 2.426 | 2.609 | 2.838 | 3.076
303.15 K | 1.118 | 1.189 | 1.283 | 1.495 | 1.709 | 1.92 | 2.172 | 2.34 | 2.547 | 2.752
308.15 K | 1.012 | 1.075 | 1.157 | 1.342 | 1.532 | 1.72 | 1.951 | 2.098 | 2.284 | 2.463
313.15 K | 0.9327 | 0.9875 | 1.061 | 1.223 | 1.393 | 1.563 | 1.773 | 1.905 | 2.072 | 2.239
318.15 K | 0.862 | 0.916 | 0.982 | 1.131 | 1.286 | 1.442 | 1.636 | 1.762 | 1.916 | 2.067

NC=O + CCCO
Conditions | viscosity [mPa·s]
293.15 K, x1 = 0.3469 | 2.612
293.15 K, x1 = 0.4434 | 2.871
293.15 K, x1 = 0.5534 | 3.132
293.15 K, x1 = 0.68 | 3.365
293.15 K, x1 = 0.827 | 3.558
293.15 K, x1 = 0.8832 | 3.612
293.15 K, x1 = 0.9328 | 3.642
298.1 K, x1 = 0.0714 | 1.935
298.1 K, x1 = 0.129 | 1.987
298.1 K, x1 = 0.2505 | 2.223
298.1 K, x1 = 0.3639 | 2.396
298.1 K, x1 = 0.4709 | 2.622
298.1 K, x1 = 0.5717 | 2.79
298.1 K, x1 = 0.6672 | 2.985
298.1 K, x1 = 0.7574 | 3.122
298.1 K, x1 = 0.8366 | 3.233
298.1 K, x1 = 0.9134 | 3.27
298.15 K, x1 = 0.3469 | 2.376
298.15 K, x1 = 0.4434 | 2.629
298.15 K, x1 = 0.5534 | 2.872
298.15 K, x1 = 0.68 | 3.09
298.15 K, x1 = 0.827 | 3.266
298.15 K, x1 = 0.8832 | 3.314
298.15 K, x1 = 0.9328 | 3.336
303.15 K, x1 = 0.3469 | 2.161
303.15 K, x1 = 0.4434 | 2.396
303.15 K, x1 = 0.5534 | 2.611
303.15 K, x1 = 0.68 | 2.806
303.15 K, x1 = 0.827 | 2.963
303.15 K, x1 = 0.8832 | 2.996
303.15 K, x1 = 0.9328 | 3.008
308.15 K, x1 = 0.3469 | 2.001
308.15 K, x1 = 0.4434 | 2.205
308.15 K, x1 = 0.5534 | 2.389
308.15 K, x1 = 0.68 | 2.559
308.15 K, x1 = 0.827 | 2.69
308.15 K, x1 = 0.8832 | 2.72
308.15 K, x1 = 0.9328 | 2.724
313.15 K, x1 = 0.3469 | 1.801
313.15 K, x1 = 0.4434 | 1.992
313.15 K, x1 = 0.5534 | 2.168
313.15 K, x1 = 0.68 | 2.332
313.15 K, x1 = 0.827 | 2.462
313.15 K, x1 = 0.8832 | 2.491
313.15 K, x1 = 0.9328 | 2.495
318.15 K, x1 = 0.2615 | 1.483
318.15 K, x1 = 0.3469 | 1.689
318.15 K, x1 = 0.4434 | 1.867
318.15 K, x1 = 0.5534 | 2.031
318.15 K, x1 = 0.68 | 2.184
318.15 K, x1 = 0.827 | 2.306
318.15 K, x1 = 0.8832 | 2.335
318.15 K, x1 = 0.9328 | 2.332
